Results taken from the supplement of paper PMC4604168 (melanoma cell lines).
Some of the results follow. Most values come without repeats; read them as rough.

What follows are molecules tested on UACC62 (assay: cell count relative to DMSO control; melanoma cells; higher = more viable cells). Settings: library dose: standard library concentration; 72 h.
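Note: cells treated in 1,536-well plates, then fixed and DAPI-stained, with nuclei counted from automated high-throughput microscope images.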

SMILES | cell count
CC1(C)NC(=O)N(c2ccc([N+](=O)[O-])c(C(F)(F)F)c2)C1=O [nilutamide] + CCc1ccc(CCOc2ccc(CC3SC(=O)NC3=O)cc2)nc1 [pioglitazone] (first compound 5 µM, partner dose 10 µM) | 89.1%
O=C(Nc1cccc(Cl)c1)Nc1ncc(CCNc2ncnc3ccsc23)s1 + CC(C)CCN1c2nc(Nc3cc(F)c(O)c(F)c3)ncc2N(C)C(=O)C1C [BID1870] (first compound 0.004 µM, partner dose 1 µM) | 81.5%
COc1cc(Nc2ncc(F)c(Nc3ccc4c(n3)NC(=O)C(C)(C)O4)n2)cc(OC)c1OC [Tamatinib] + N#Cc1c(O)c2c(-c3ccc(-c4ccccc4O)cc3)csc2[nH]c1=O [A769662] (first compound 2 µM, partner dose 10 µM) | 82.8%
O=C(Nc1cccc(Cl)c1)Nc1ncc(CCNc2ncnc3ccsc23)s1 + COC(=O)c1sccc1S(=O)(=O)Nc1ccc(Nc2ccccc2)cc1OC [GSK0660] (first compound 0.004 µM, partner dose 5 µM) | 83.7%
O=C(Nc1cccc(Cl)c1)Nc1ncc(CCNc2ncnc3ccsc23)s1 + c1cc(-c2cnn3cc(-c4ccc(OCCN5CCCCC5)cc4)cnc23)ccn1 [Dorsomorphin] (first compound 0.004 µM, partner dose 2 µM) | 75.4%
CC1(C)NC(=O)N(c2ccc([N+](=O)[O-])c(C(F)(F)F)c2)C1=O [nilutamide] + COc1ccc2c(c1)CCC1C2CCC2(C)C(NCCCCCCN3C(=O)C=CC3=O)CCC12 [U73122] (first compound 5 µM, partner dose 2 µM) | 82.7%
O=C(Nc1cccc(Cl)c1)Nc1ncc(CCNc2ncnc3ccsc23)s1 + Oc1cc(-c2nc(-c3ccccc3)[nH]c2-c2ccncc2)ccc1Cl [L779450] (first compound 0.004 µM, partner dose 1 µM) | 61%
CC1(C)NC(=O)N(c2ccc([N+](=O)[O-])c(C(F)(F)F)c2)C1=O [nilutamide] + Cc1cc([N+](=O)[O-])ccc1NS(=O)(=O)c1cc(Cl)ccc1Cl [FH535] (first compound 5 µM, partner dose 5 µM) | 110%
O=C(O)c1ccc(-c2c[nH]c3ncc(-c4ccccc4)cc23)cc1C1CCCC1 + CC(C)CCN1c2nc(Nc3cc(F)c(O)c(F)c3)ncc2N(C)C(=O)C1C [BID1870] (first compound 0.8 µM, partner dose 1 µM) | 77.5%
Cn1cncc1[C@@](N)(c1ccc(Cl)cc1)c1ccc2c(c1)c(-c1cccc(Cl)c1)cc(=O)n2C [tipifarnib] + COc1cc(N2CCC(N3CCN(C)CC3)CC2)ccc1Nc1ncc(Cl)c(Nc2ccccc2S(=O)(=O)C(C)C)n1 [NVP-TAE684] (first compound 0.05 µM, partner dose 0.4 µM) | 62.3%
O=C(O)c1ccc(-c2c[nH]c3ncc(-c4ccccc4)cc23)cc1C1CCCC1 + COc1ccc2c(c1)CCC1C2CCC2(C)C(NCCCCCCN3C(=O)C=CC3=O)CCC12 [U73122] (first compound 0.8 µM, partner dose 2 µM) | 93.3%
C[C@@H]1CCN(C(=O)CC#N)C[C@@H]1N(C)c1ncnc2[nH]ccc12 + O=C(O)C(=O)Nc1sc2c(c1C(=O)O)CCNC2 [TCS401] (first compound 5 µM, partner dose 8.33333 µM) | 139%
C[C@@H]1CCN(C(=O)CC#N)C[C@@H]1N(C)c1ncnc2[nH]ccc12 + CCCCCCCCCCCC1=C(O)C(=O)C=C(O)C1=O [Embelin] (first compound 5 µM, partner dose 6 µM) | 120%
O=C(Nc1cccc(Cl)c1)Nc1ncc(CCNc2ncnc3ccsc23)s1 + COc1ccc(COc2ccc(Cc3cnc(N)nc3N)cc2OC)cc1 [GW2580] (first compound 0.004 µM, partner dose 5 µM) | 77.2%
COc1cc(Nc2ncc(F)c(Nc3ccc4c(n3)NC(=O)C(C)(C)O4)n2)cc(OC)c1OC [Tamatinib] + COc1ccc2c(c1)CCC1C2CCC2(C)C(NCCCCCCN3C(=O)C=CC3=O)CCC12 [U73122] (first compound 2 µM, partner dose 2 µM) | 97.2%
C[C@@H]1CCN(C(=O)CC#N)C[C@@H]1N(C)c1ncnc2[nH]ccc12 + O=C(Nc1ccccc1)c1cc([N+](=O)[O-])ccc1Cl [GW9662] (first compound 5 µM, partner dose 10 µM) | 62.1%

SMILES | cell count
C[C@@H]1CCN(C(=O)CC#N)C[C@@H]1N(C)c1ncnc2[nH]ccc12 + CC(C)CCN1c2nc(Nc3cc(F)c(O)c(F)c3)ncc2N(C)C(=O)C1C [BID1870] (first compound 5 µM, partner dose 1 µM) | 78.4%
O=C(O)c1ccc(-c2c[nH]c3ncc(-c4ccccc4)cc23)cc1C1CCCC1 + Oc1cc(-c2nc(-c3ccccc3)[nH]c2-c2ccncc2)ccc1Cl [L779450] (first compound 0.8 µM, partner dose 1 µM) | 54.8%
Cn1cncc1[C@@](N)(c1ccc(Cl)cc1)c1ccc2c(c1)c(-c1cccc(Cl)c1)cc(=O)n2C [tipifarnib] + O=S(=O)(c1ccccc1)N(CC(F)(F)F)c1ccc(C(O)(C(F)(F)F)C(F)(F)F)cc1 [T0901317] (first compound 0.05 µM, partner dose 7 µM) | 79.6%
CC1(C)NC(=O)N(c2ccc([N+](=O)[O-])c(C(F)(F)F)c2)C1=O [nilutamide] + O=S(=O)(c1ccccc1)N(CC(F)(F)F)c1ccc(C(O)(C(F)(F)F)C(F)(F)F)cc1 [T0901317] (first compound 5 µM, partner dose 7 µM) | 78.9%
O=C(Nc1cccc(Cl)c1)Nc1ncc(CCNc2ncnc3ccsc23)s1 + COc1ccc(-c2ccc3c(N4CCOCC4)nc(N4C[C@@H](C)O[C@@H](C)C4)nc3n2)cc1CO [KU0063794] (first compound 0.004 µM, partner dose 0.1 µM) | 74.2%
CC1(C)NC(=O)N(c2ccc([N+](=O)[O-])c(C(F)(F)F)c2)C1=O [nilutamide] + CCCCCCCCCCCC1=C(O)C(=O)C=C(O)C1=O [Embelin] (first compound 5 µM, partner dose 6 µM) | 62.2%
COc1cc(Nc2ncc(F)c(Nc3ccc4c(n3)NC(=O)C(C)(C)O4)n2)cc(OC)c1OC [Tamatinib] + COc1cc(N2CCC(N3CCN(C)CC3)CC2)ccc1Nc1ncc(Cl)c(Nc2ccccc2S(=O)(=O)C(C)C)n1 [NVP-TAE684] (first compound 2 µM, partner dose 0.4 µM) | 72.5%
COc1cc(Nc2ncc(F)c(Nc3ccc4c(n3)NC(=O)C(C)(C)O4)n2)cc(OC)c1OC [Tamatinib] + Cc1cc([N+](=O)[O-])ccc1NS(=O)(=O)c1cc(Cl)ccc1Cl [FH535] (first compound 2 µM, partner dose 5 µM) | 64.7%
CC1(C)NC(=O)N(c2ccc([N+](=O)[O-])c(C(F)(F)F)c2)C1=O [nilutamide] + COc1ccc(-c2ccc3c(N4CCOCC4)nc(N4C[C@@H](C)O[C@@H](C)C4)nc3n2)cc1CO [KU0063794] (first compound 5 µM, partner dose 0.1 µM) | 113%
O=C(O)c1ccc(-c2c[nH]c3ncc(-c4ccccc4)cc23)cc1C1CCCC1 + COc1cc(N2CCC(N3CCN(C)CC3)CC2)ccc1Nc1ncc(Cl)c(Nc2ccccc2S(=O)(=O)C(C)C)n1 [NVP-TAE684] (first compound 0.8 µM, partner dose 0.4 µM) | 87%
Cn1cncc1[C@@](N)(c1ccc(Cl)cc1)c1ccc2c(c1)c(-c1cccc(Cl)c1)cc(=O)n2C [tipifarnib] + CCCCCCCCCCCC1=C(O)C(=O)C=C(O)C1=O [Embelin] (first compound 0.05 µM, partner dose 6 µM) | 69.2%
CC1(C)NC(=O)N(c2ccc([N+](=O)[O-])c(C(F)(F)F)c2)C1=O [nilutamide] + CCN(CC)CCCCNc1ncc2cc(-c3cc(OC)cc(OC)c3)c(NC(=O)NC(C)(C)C)nc2n1 [PD173074] (first compound 5 µM, partner dose 0.5 µM) | 85.7%
C[C@@H]1CCN(C(=O)CC#N)C[C@@H]1N(C)c1ncnc2[nH]ccc12 + CCc1ccc(CCOc2ccc(CC3SC(=O)NC3=O)cc2)nc1 [pioglitazone] (first compound 5 µM, partner dose 10 µM) | 105%
Cn1cncc1[C@@](N)(c1ccc(Cl)cc1)c1ccc2c(c1)c(-c1cccc(Cl)c1)cc(=O)n2C [tipifarnib] + Oc1cc(-c2nc(-c3ccccc3)[nH]c2-c2ccncc2)ccc1Cl [L779450] (first compound 0.05 µM, partner dose 1 µM) | 64.1%
Cn1cncc1[C@@](N)(c1ccc(Cl)cc1)c1ccc2c(c1)c(-c1cccc(Cl)c1)cc(=O)n2C [tipifarnib] + COc1ccc(-c2ccc3c(N4CCOCC4)nc(N4C[C@@H](C)O[C@@H](C)C4)nc3n2)cc1CO [KU0063794] (first compound 0.05 µM, partner dose 0.1 µM) | 74.6%
Cn1cncc1[C@@](N)(c1ccc(Cl)cc1)c1ccc2c(c1)c(-c1cccc(Cl)c1)cc(=O)n2C [tipifarnib] + CCN(CC)CCCCNc1ncc2cc(-c3cc(OC)cc(OC)c3)c(NC(=O)NC(C)(C)C)nc2n1 [PD173074] (first compound 0.05 µM, partner dose 0.5 µM) | 77%
